Experimental data from patent US11000038B2, “Pyridone compounds and agricultural and horticultural fungicides containing the same as active ingredients” (priority 2017, dated 2021).

Assays:
[1] = test system: rice blast fungi (Magnaporthe grisea); assay type: in vivo; details: rice blast, spray treatment of rice plants
[2] = test system: tomato late blight fungi (Phytophthora infestans); assay type: in vivo; details: tomato late blight, spray treatment of tomato plants
[3] = test system: cucumber anthracnose fungi (Colletotrichum orbiculare); assay: Test Example H: cucumber anthracnose, spray treatment of cucumber plants; details: cucumber anthracnose, 250 ppm spray (2.5 ml/pot), 6 to 10 days after inoculation

Row | Compound | Test A control value [1] | Test F control value [2] | Test H control value [3]
1 | CCc1c(-c2c(F)cc(F)cc2F)n(CC(C)C)cc(Br)c1=O [Compound 220] | H (H shows the control value of more than 50%) | L (L shows the control value of 50% or less) | H (H shows the control value of more than 50%)
2 | CCCCn1cc(Cl)c(=O)c(Cl)c1-c1c(F)cc(F)cc1F [Compound 221] | H (H shows the control value of more than 50%) | H (H shows the control value of more than 50%) | H (H shows the control value of more than 50%)
3 | CCCCn1cc(Cl)c(=O)c(Br)c1-c1c(F)cc(F)cc1F [Compound 222] | H (H shows the control value of more than 50%) | L (L shows the control value of 50% or less) | H (H shows the control value of more than 50%)
4 | Cc1c(-c2c(F)cc(F)cc2F)n(CC(C)C)cc(Cl)c1=O [Compound 223] | H (H shows the control value of more than 50%) | L (L shows the control value of 50% or less) | H (H shows the control value of more than 50%)
5 | CCc1c(-c2c(F)cc(F)cc2F)n(CC(C)C)cc(Cl)c1=O [Compound 224] | H (H shows the control value of more than 50%) | L (L shows the control value of 50% or less) | H (H shows the control value of more than 50%)
6 | COc1cc(F)c(-c2c(C)c(=S)c(C)cn2-c2ccccc2C)c(F)c1 [Compound 225] | H (H shows the control value of more than 50%) | L (L shows the control value of 50% or less) | H (H shows the control value of more than 50%)
7 | Cc1ccccc1-n1cc(C)c(=O)c(C)c1-c1ccc(F)cc1 [Compound 226] | H (H shows the control value of more than 50%) | L (L shows the control value of 50% or less) | H (H shows the control value of more than 50%)
8 | Cc1ccccc1-n1cc(C)c(=O)c(C)c1-c1ccc(C#N)cc1 [Compound 227] | H (H shows the control value of more than 50%) | L (L shows the control value of 50% or less) | L (L shows the control value of 50% or less)
9 | COc1ccc(C)c(-n2cc(Cl)c(=O)c(Br)c2-c2c(F)cc(F)cc2F)c1 [Compound 228] | H (H shows the control value of more than 50%) | L (L shows the control value of 50% or less) | H (H shows the control value of more than 50%)
10 | COc1ccc(C)c(-n2cc(Cl)c(=O)c(Cl)c2-c2c(F)cc(F)cc2F)c1 [Compound 229] | H (H shows the control value of more than 50%) | L (L shows the control value of 50% or less) | H (H shows the control value of more than 50%)
11 | Cc1ccc(Cl)cc1-n1cc(Br)c(=O)c(Cl)c1-c1c(F)cc(F)cc1F [Compound 230] | H (H shows the control value of more than 50%) | L (L shows the control value of 50% or less) | H (H shows the control value of more than 50%)
12 | CCc1c(-c2c(F)cc(F)cc2F)n(CC(C)C)cc(C)c1=O [Compound 231] | H (H shows the control value of more than 50%) | L (L shows the control value of 50% or less) | H (H shows the control value of more than 50%)
13 | CCc1c(-c2c(F)cc(OC)cc2F)n(CC(C)C)cc(C)c1=O [Compound 232] | H (H shows the control value of more than 50%) | L (L shows the control value of 50% or less) | H (H shows the control value of more than 50%)
14 | CCCCn1cc(Br)c(=O)c(Cl)c1-c1c(F)cc(F)cc1F [Compound 233] | H (H shows the control value of more than 50%) | L (L shows the control value of 50% or less) | H (H shows the control value of more than 50%)
15 | CCCCn1cc(Br)c(=O)c(Br)c1-c1c(F)cc(F)cc1F [Compound 234] | H (H shows the control value of more than 50%) | L (L shows the control value of 50% or less) | L (L shows the control value of 50% or less)
16 | Cc1ccccc1-n1cc(Br)c(=O)c(Cl)c1-c1ccc(F)cc1 [Compound 235] | H (H shows the control value of more than 50%) | L (L shows the control value of 50% or less) | H (H shows the control value of more than 50%)
17 | Cc1ccccc1-n1cc(Br)c(=O)c(Br)c1-c1ccc(F)cc1 [Compound 236] | H (H shows the control value of more than 50%) | L (L shows the control value of 50% or less) | H (H shows the control value of more than 50%)

Row | Compound | Test A control value [1] | Test F control value [2] | Test H control value [3]
18 | Cc1ccccc1-n1cc(Br)c(=O)c(Cl)c1-c1ccc(C#N)cc1 [Compound 237] | H (H shows the control value of more than 50%) | L (L shows the control value of 50% or less) | L (L shows the control value of 50% or less)
19 | Cc1ccccc1-n1cc(Br)c(=O)c(Br)c1-c1ccc(C#N)cc1 [Compound 238] | H (H shows the control value of more than 50%) | L (L shows the control value of 50% or less) | L (L shows the control value of 50% or less)
20 | Cc1ccc(Cl)cc1-n1cc(Br)c(=O)c(Br)c1-c1c(F)cc(F)cc1F [Compound 239] | H (H shows the control value of more than 50%) | L (L shows the control value of 50% or less) | H (H shows the control value of more than 50%)
21 | Cc1ccc(Cl)cc1-n1cc(Cl)c(=O)c(Br)c1-c1c(F)cc(F)cc1F [Compound 240] | H (H shows the control value of more than 50%) | L (L shows the control value of 50% or less) | H (H shows the control value of more than 50%)
22 | Cc1ccc(Cl)cc1-n1cc(Cl)c(=O)c(Cl)c1-c1c(F)cc(F)cc1F [Compound 241] | H (H shows the control value of more than 50%) | L (L shows the control value of 50% or less) | H (H shows the control value of more than 50%)
23 | COc1ccc(-c2c(C)c(=O)c(C)cn2-c2ccccc2C)cc1 [Compound 242] | H (H shows the control value of more than 50%) | H (H shows the control value of more than 50%) | H (H shows the control value of more than 50%)
24 | COC(=O)c1ccc(-c2c(C)c(=O)c(C)cn2-c2ccccc2C)cc1 [Compound 243] | L (L shows the control value of 50% or less) | L (L shows the control value of 50% or less) | L (L shows the control value of 50% or less)
25 | Cc1ccccc1-n1cc(C)c(=O)c(C)c1-c1ccc(C(F)(F)F)cc1 [Compound 244] | L (L shows the control value of 50% or less) | L (L shows the control value of 50% or less) | H (H shows the control value of more than 50%)
26 | Cc1cn(CC(C)C)c(-c2c(F)cc(F)cc2F)c(C)c1=O [Compound 245] | H (H shows the control value of more than 50%) | L (L shows the control value of 50% or less) | H (H shows the control value of more than 50%)
27 | COc1ccc(Cn2cc(C)c(=O)c(C)c2-c2c(F)cc(F)cc2F)c(OC)c1 [Compound 246] | H (H shows the control value of more than 50%) | L (L shows the control value of 50% or less) | L (L shows the control value of 50% or less)
28 | Cc1ccc(Br)cc1-n1cc(Br)c(=O)c(Cl)c1-c1c(F)cc(F)cc1F [Compound 247] | H (H shows the control value of more than 50%) | L (L shows the control value of 50% or less) | H (H shows the control value of more than 50%)
29 | Cc1ccc(Br)cc1-n1cc(Br)c(=O)c(Br)c1-c1c(F)cc(F)cc1F [Compound 248] | H (H shows the control value of more than 50%) | L (L shows the control value of 50% or less) | H (H shows the control value of more than 50%)
30 | Cc1ccc(Br)cc1-n1cc(Cl)c(=O)c(Br)c1-c1c(F)cc(F)cc1F [Compound 249] | H (H shows the control value of more than 50%) | L (L shows the control value of 50% or less) | H (H shows the control value of more than 50%)
31 | Cc1ccc(Br)cc1-n1cc(Cl)c(=O)c(Cl)c1-c1c(F)cc(F)cc1F [Compound 250] | H (H shows the control value of more than 50%) | L (L shows the control value of 50% or less) | H (H shows the control value of more than 50%)
32 | Cc1ccccc1-n1cc(C)c(=O)c(C)c1-c1c(F)cncc1F [Compound 251] | H (H shows the control value of more than 50%) | L (L shows the control value of 50% or less) | H (H shows the control value of more than 50%)
33 | Cc1ccccc1-n1cc(C)c(=O)c(C)c1-c1c(Cl)cncc1Cl [Compound 252] | H (H shows the control value of more than 50%) | L (L shows the control value of 50% or less) | H (H shows the control value of more than 50%)
